# Where two headings read alike, the source gives them in different places.
# Assays:
# [1] = system: palmer amaranth having an Arg128Met mutation in PPO2
# Experimental: (§1) In a plastic pot, palmer amaranth (Amaranthus palmeri) having an Arg128Met mutation in PPO2 is seeded. On the same day, compound X is applied to the surface of soil so that the application rate of the compound X is 10, 20, 40, or 80 g/ha and the spray liquid amount is 200 L/ha. The plastic pot is then placed in a greenhouse, and at 7 days after the application, soybeans are seeded, and further at 14 days after seeding the soybeans, the effect on the weeds and crop injuries on the soybeans are investigated.
# (§2) In a plastic pot, palmer amaranth (Amaranthus palmeri) having an Arg128Met mutation in PPO2 and soybeans are seeded. On the same day, compound X is applied to the surface of soil so that the application rate of the compound X is 10, 20, 40, or 80 g/ha and the spray liquid amount is 200 L/ha. The soybeans are then cultivated in a greenhouse, and at 21 days after seeding, the effect on the weeds and crop injuries on the soybeans are investigated.
# (§3) In a plastic pot, palmer amaranth (Amaranthus palmeri) having an Arg128Met mutation in PPO2 and soybeans are seeded. The soybeans are then cultivated in a greenhouse, and at 21 days after seeding, compound X is applied to the stem and leaf so that the application rate of the compound X is 10, 20, 40, or 80 g/ha and the spray liquid amount is 200 L/ha. Further, the soybeans are cultivated in the greenhouse, and at 14 days after the application of compound X, the effect on the weeds and crop injuries on the soybeans are investigated.
# [2] = system: PPO inhibitor-resistant weeds; experiment: Pot tests with crops in greenhouse (Examples 73 to 2304); conditions: Examples 145 to 288: as Examples 1 to 144, RoundupPowerMax added at 32 fluid ounce/acre (1,543 g/ha as glyphosate-potassium salt)
# Experimental: as §1, §2
# as §3, with “Further, the soybeans are cultivated in the greenhouse, and at 14 days after the application of compound X, the effect on the weeds and crop injuries on the soybeans are investigated.” left out
# [3] = system: palmer amaranth containing an Arg128Met mutation in PPO2; experiment: Foliar spray pot test in greenhouse, herbicidal effect; conditions: 200 L/ha, rating 0 to 100
SMILES,"effect on the weeds ([1]; Example 1: soil surface application on day of weed seeding, 10, 20, 40 or 80 g/ha, soybeans seeded 7 days after, assessed 14 days after seeding soybeans)","effect on the weeds ([1]; Example 2: soil surface application on day of seeding weed and soybeans, 10, 20, 40 or 80 g/ha, assessed 21 days after seeding)","effect on the weeds ([1]; Example 3: stem and leaf application 21 days after seeding, 10, 20, 40 or 80 g/ha, assessed 14 days after application)",effect on the weeds [2],"Herbicidal effect ([3]; Example 2305: plant height 10 cm, sprayed 5 g/ha, 14 days after)","Herbicidal effect ([3]; Example 2306: plant height 30 cm, sprayed 20 g/ha, 7 days after)"
CCOC(=O)COc1ccccc1Oc1nc(-n2c(=O)cc(C(F)(F)F)n(C)c2=O)c(F)cc1Cl [compound X],effective control effect,effective control effect,effective control effect,effective control effect,100,95
CCOC(=O)COc1ncccc1Oc1nc(-n2c(=O)cc(C(F)(F)F)n(C)c2=O)c(F)cc1Cl [compound Y],,,,effective control effect,,

# — US12426598B2, “Method for controlling herbicide-resistant weed” (SUMITOMO CHEMICAL COMPANY, LIMITED, priority 2019, dated 2025)
